The campaign covered roughly 50,000 compounds. About 800 (1.6%) showed an effect of 50% or more. The list shows a part of the results.

This experiment deals with Bcl-2-like protein 10 (Homo sapiens) (UniProt Q9HD36). Put plainly: TR3 peptide-Bcl-B binding displacers, biochemical primary FP assay, phenotype converters (AID 1240).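 Further: 0% = Bcl-B with tracer peptide and DMSO and 100% = tracer peptide lacking Bcl-B.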 The conditions noted are these: GST-Bcl-B / FITC-TR3 peptide fluorescence polarization; stronger effect = higher value; compound at 3.75 mg/L.
Chain of UniProt Q9HD36 (Q9HD36 whole entry, looked up): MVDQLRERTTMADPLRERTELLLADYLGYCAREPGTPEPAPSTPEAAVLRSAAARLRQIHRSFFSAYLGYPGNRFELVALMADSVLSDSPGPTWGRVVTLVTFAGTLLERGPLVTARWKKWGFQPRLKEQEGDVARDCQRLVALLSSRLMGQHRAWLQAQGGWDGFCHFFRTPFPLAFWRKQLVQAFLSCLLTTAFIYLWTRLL
Turning to `C#CCOc1ccc(/C=C2\C(=O)NC(=O)N(c3ccc(C)cc3)C2=O)cc1`, the displacement is -40.5%.

In the case of `O=C(Nc1ccc(Br)cc1)C1CCCC1`, the displacement is -10.4%. As for `N=C1S/C(=C\c2ccc3c(c2)OCO3)C(=O)N1c1ccc(F)cc1`, the figure is 2.6%; as for `O=C1C=C(NNC(=O)c2ccc(Cl)cc2)CC(c2ccco2)C1` (stereo not given), 26.4%; as for `O=S(=O)(Nc1ccc(Oc2ccccc2)cc1)c1ccc(F)cc1`, -11.5%.

As to `COc1ccc(C(=O)Nc2ccc(OC(F)(F)F)cc2)cc1OC`, the displacement came out at 42.5%.

With `CCOc1ccccc1NC(=O)c1ccc(Cl)cc1Cl`, the displacement is -11%. For `COc1ccc(OC(C)C(=O)Nc2ccc(C(=O)OC(C)C)cc2)cc1` (stereo not given), the displacement stood at 13.7%. As for `Cc1[nH]n(-c2ccccc2)c(=O)c1C(=O)c1ccccc1F`, the figure is 9.2%; as for `CN1CCN(C(=O)c2nn3c(C(F)(F)F)cc(-c4ccco4)nc3c2Cl)CC1`, -6%. For `N/C(=N\OC(=O)c1ccccc1F)c1cccnc1` the value was -13.8%; for `COc1ccc(N(CC(=O)O)S(C)(=O)=O)cc1Cl`, 9.9%; for `N/C(=N\OC(=O)Cc1ccc(Cl)cc1)c1ccccc1`, 0.4%. As for `CCOC(=O)c1[nH]cnc1C(=O)NCc1ccccc1`, the figure is 11.4%. Consider `COc1ccc(NC(=O)C(c2ccccc2)c2ccccc2)cc1OC`, for which the displacement was -7.4%. Turning to `CCOC(=O)c1ccc2[nH]c3c(c2c1)CCCCC3=O`, the displacement was -2.9%. As for `CC1(C)CC(=O)C2=C(C1)OC1=C(C(=O)CC(C)(C)C1)C2c1c(O)ccc2ccccc12`, the figure is -0.6%; as for `CCc1nn2c(C(F)(F)F)cc(=O)[nH]c2c1C`, -7.1%; as for `COc1cccc(C(=O)NC(NC(=S)Nc2ccc(C)cc2)C(Cl)(Cl)Cl)c1` (stereo not given), -5%. For `Cc1ccc(NC(=O)CCOc2ccccc2)c(Br)c1` the value was 2.3%; for `Cn1ncc([N+](=O)[O-])c1/C=C/N1CCOCC1`, 2.6%; for `CC(C)=NNC(=O)C(C)Sc1ccccc1` (stereo not given), 2.6%. Take `COc1ccccc1N1C(=O)/C(=C\c2ccc(Cl)cc2Cl)SC1=S`: the displacement worked out at 6.5%. For `CC(C)c1ccc(-c2nn(-c3ccccc3)cc2-c2nnc(N)o2)cc1` the value was 4.4%. As for `CC(=O)Nc1ccc(C(=O)NCc2ccco2)cc1`, the figure is 3.9%; as for `O=C1CC(N(CCc2ccccc2)C(=O)c2ccccc2)C(=O)N1c1ccccc1` (stereo not given), -5.4%. Take `COC(=O)c1ccccc1NC(=O)CN(c1ccc(OC)c(Cl)c1)S(C)(=O)=O`: the displacement was -0.1%. Consider `COc1ccc(/C=N/NC(=O)CCNc2n[nH]c(=O)[nH]c2=O)cc1`, for which the displacement was -9.3%. `CN1CCc2c(sc3nc(SCC(=O)c4ccccc4)nc(N)c23)C1`: the displacement is -5.3%. For `COc1ccc(Cl)cc1NC(=O)COc1ccccc1C` the value was -1.7%; for `CCOC(=O)C1=C(C)N=c2s/c(=C\c3cccc(O)c3)c(=O)n2C1c1ccc(OC)cc1` (stereo not given), 5.9%; for `O=C(CCNc1ccc(F)cc1)c1ccc(Cl)c(Cl)c1`, -5%. For `O=C1/C(=N\n2cnnc2)c2ccccc2N1Cc1ccccc1` the value was 1.9%; for `CN(C)c1ccc(NC(=O)c2ccc(Cl)c([N+](=O)[O-])c2)cc1`, 9%; for `COc1ccc(C(=O)NNS(=O)(=O)c2ccccc2)cc1`, 4.3%. As for `COc1ccc(Cl)cc1NC(=O)COc1ccc(Cl)cc1Br`, the figure is -8.7%; as for `Cc1ccc2c(c1)c1ccccc1n2COCc1ccccc1`, -6.1%; as for `O=C(Nc1ccccn1)C1CC(=O)N(c2ccc(Br)cc2)C1` (stereo not given), 4.7%.

`COc1cc([N+](=O)[O-])ccc1-c1ccc(/C=C2/C(C)=C(C#N)c3nc(N)c(C#N)c(C)c32)o1`: the displacement was -4.8%. As for `COc1cccc(/C=C2\C(=O)NN(c3ccccc3)C2=O)c1O`, the displacement is 15.7%. For the molecule `NNC(=O)CSc1nc2ccccc2n1Cc1ccccc1`, the displacement is -9.6%. For `COc1cc(-c2nc(-c3ccccc3)c(-c3ccc([N+](=O)[O-])cc3)[nH]2)cc(OC)c1O`, the displacement is -6.7%.

For `Cc1cc(C)n(C(=O)c2cccc(Br)c2)n1`, the displacement is -8.5%. As for `Cc1ccc(C(=O)Nc2ccc3nn(-c4ccc(F)cc4)nc3c2)cc1[N+](=O)[O-]`, the figure is -2.9%; as for `O=C(Nc1ccc(O)c(-c2nc3ccccc3s2)c1)c1cc2ccccc2o1`, 19.6%. As for `CCN(CC)S(=O)(=O)c1ccc(Cl)c(C(=O)Nc2sc3c(c2C#N)CCCC3)c1`, the figure is -11.3%; as for `O=C1c2cccc3cccc(c23)C(=O)N1CCSc1nc2sc3c(c2c(=O)[nH]1)CCCC3`, -1.9%. As for `COc1ccc(OC)c(/C=C2\SC(N3CCCC3)=NC2=O)c1`, the figure is -16.2%. On to `CCCC(=O)Nc1ccc(NC(=O)c2ccc(Cl)cc2Cl)cc1`, for which the displacement is -3.3%. As to `CCOC(=O)c1ccc(N2NC(=O)/C(=C/c3cc(Cl)cc(Br)c3O)C2=O)cc1`, the displacement is -10.1%.

For `CC(=O)c1cccc(NC(=O)COc2ccccc2C(C)(C)C)c1`, the displacement stood at 6%. As for `COc1ccc(/C=N/N(C)c2cc(C)nc(-c3ccccc3O)n2)cc1`, the figure is -6.9%; as for `COc1ccc(OCC(=O)Nc2ccc3oc(-c4ccc(Cl)cc4Cl)nc3c2)cc1`, -9.1%; as for `CSC(N)=NC(=NS(=O)(=O)c1ccccc1)c1ccccc1`, 3.9%. For `O=C(N/N=C(/C=N/O)c1ccccc1)c1cccc(Br)c1` the value was 1.4%. For `Cc1ccc(N2CC(C(=O)Nc3cccc(Cl)c3)CC2=O)cc1` (stereo not given) the value was -7.6%.

`COCCCNC(=O)CN(c1cccc(Cl)c1)S(C)(=O)=O`: the displacement is -2.4%. As for `COc1ccc(N(CC(=O)NCc2ccccc2OC)S(=O)(=O)c2ccccc2)cc1Cl`, the figure is 3.2%; as for `CCOc1cc(OCC)cc(C(=O)Nc2cccc(NC(=O)c3ccccc3C)c2)c1`, 9%.

Turning to `CCc1ccc(N2CC(C(=O)Nc3cccc(C)c3C)CC2=O)cc1` (stereo not given), the displacement is 14.8%. For `COc1ccc2c(c1OC)C(=O)N(c1ccc(C(C)=O)cc1)C2=O` the value was -14.2%; for `CCOc1ccc(N2C(=O)NC(=O)/C(=C/c3cc(Br)c(OCC)c(OC)c3)C2=O)cc1`, -6.7%; for `CC1=NN(c2ccccc2)C(=O)C1/C=C1\C(=O)NC(=S)N(c2ccc(F)cc2)C1=O` (stereo not given), 2.4%.

`O=C(CCCOc1ccccc1)Nc1ccc(S(=O)(=O)Nc2nccs2)cc1`: the displacement turned out to be 0.6%.

As for `Cc1ccc(Nc2cc(C)c(O)c(C)c2)cc1`, the displacement is 5.4%. For the molecule `CCOC(=O)C(C(=O)OCC)C(C(=O)OCC)(C(=O)OCC)C(C(=O)OCC)C(=O)OCC`, the displacement came out at 2.1%. As for `O=C(c1ccccc1)N1CCN(CCCc2ccccc2)CC1`, the figure is -9.4%; as for `N#Cc1c(-c2ccco2)cc(-c2ccccc2)[nH]c1=S`, 11.1%; as for `CCOc1cc(C=NNC(=S)NC2CCCCC2)ccc1O`, -13.2%. As for `CCOC(=O)c1ccc(NC(=S)NC(=O)/C=C/c2ccccc2)cc1`, the figure is 2.1%.

Source of the values: PubChem BioAssay AID1240 (Sanford-Burnham Center for Chemical Genomics, 2008).
